# Reference: PubChem BioAssay AID2451 (National Center for Advancing Translational Sciences (NCATS), 2010)
# Among all 290,000 compounds or so, about 2,100 (0.72%) were called active. This list was built around the results that the source calls inconclusive (neither active nor inactive); the mix of calls is not that of the screen. Calls follow the shape of the dose curve; as a rule, active = well fitted inhibition curve with a large enough effect; inconclusive = small, poorly fitted or top-dose-only effect, or effect the other way; inactive = flat fitted curve, though single readings scatter. A potency beside an inconclusive call is a rough fit, not a confirmed value.
# Target: Fructose-bisphosphate aldolase (Giardia intestinalis (strain ATCC 50803 / WB clone C6)) (UniProt A8B2U2)
# Sequence of UniProt A8B2U2 (A8B2U2 whole entry, looked up): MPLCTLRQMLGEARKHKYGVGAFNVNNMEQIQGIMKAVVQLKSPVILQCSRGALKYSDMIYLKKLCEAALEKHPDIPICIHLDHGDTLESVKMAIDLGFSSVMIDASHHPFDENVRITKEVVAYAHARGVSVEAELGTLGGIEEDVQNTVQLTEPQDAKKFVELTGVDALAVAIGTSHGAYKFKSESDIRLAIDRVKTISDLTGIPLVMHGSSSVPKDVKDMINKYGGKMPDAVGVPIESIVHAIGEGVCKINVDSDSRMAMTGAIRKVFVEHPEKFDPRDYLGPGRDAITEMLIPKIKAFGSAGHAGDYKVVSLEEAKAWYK
# Experiment: qHTS Assay for Inhibitors of Fructose-1,6-bisphosphate Aldolase from Giardia Lamblia; also: nearly all actives have a fitted effect of over 55% in size
# Conditions: purified Giardia FBPA; series mostly up to 59.6 µM
# In short: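 Giardia FBPA (40 nM reagent) was preincubated 10 min at RT with compound (up to 57.5 uM final), then substrate plus GAPDH/TPI/NAD/arsenate coupling system with diaphorase/resazurin was added; resorufin fluorescence (525/598 nm) was read after 20 min.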
# Potency is read from the fitted curve at half-maximal effect; tags tell the direction and shape of the fitted curve.
row,Compound,Potency
1,Nc1ccc2ncccc2c1,active: 2.23 µM
2,O=C(COC(=O)Cn1cnc2ccccc21)Nc1ccc2c(c1)C(=O)c1ccccc1C2=O,inactive
3,CCCC(=Nc1ccc(N)cc1)C1=C(O)C(C(=O)OC)C(C)(C)CC1=O (configuration not stated),"inconclusive: 3.54 µM [inhibitor, full curve]"
4,O=C(Oc1c(CN2CCOCC2)cc(Cl)c2cccnc12)c1ccccc1F,active: 15.8 µM
5,Cc1cc(C)c2sc(NNC(=O)c3ccc(S(=O)(=O)N4CCc5ccccc5C4)cc3)nc2c1,"inconclusive: 19.9 µM [inhibitor, single point]"
6,COc1ccc(/C=N\NC(=O)c2cc(O)c(O)c(O)c2)cc1CN1CCN(c2ccc(F)cc2)CC1,"inconclusive: 6.29 µM [inhibitor, partial curve]"
7,Oc1ccc(N2CCN(CC(O)c3ccccc3)CC2)cc1 (configuration not stated),"inconclusive: 20 µM [inhibitor, single point]"
8,CCc1nc(SCC(=O)Nc2ccccc2OC)c2c(C)c(C)sc2n1,inactive
9,O=C(O)C1CSC(c2ccc3c(c2)OCO3)N1 (configuration not stated),"inconclusive: 17.7 µM [inhibitor, single point]"
10,CCOC(=O)c1cnc(SC2CCc3ccccc3C2=O)nc1N (configuration not stated),"inconclusive: 31.6 µM [inhibitor, single point]"
11,O=C(Nc1ccc(NC(=O)C2CC2)cc1)c1cccs1,inactive
12,O=C(CSC1CCCCC1)N1CCN(c2ccccc2)CC1,"inconclusive: 19.9 µM [inhibitor, single point]"
13,COc1ccc(C(=O)N2CCC3(CC2)CCN(c2cccc(-c4ccccc4)c2)CC3)cc1,inactive
14,O=C(c1ccco1)[C@@H]1[C@@H]2C(=O)N(c3ccc(Br)cc3)C(=O)[C@@H]2C2c3ccccc3C=CN21 (some centres not stated),"inconclusive: 2.51 µM [inhibitor, full curve, poor fit]"
15,CC(C)Cn1c(SCC(=O)c2ccc(Cl)s2)nnc1-c1ccco1,inactive
16,CN1CCN(CCOc2ccc(Cl)c(Cl)c2)CC1,"inconclusive: 19.9 µM [inhibitor, partial curve]"
17,O=C(O)c1cccc(-n2nnnc2SCc2ccccc2Cl)c1,"inconclusive: 15.8 µM [activator, partial curve]"
18,O=C(COC(=O)Cc1ccccc1[N+](=O)[O-])NCc1ccccc1Cl,inactive
19,CCCCCC/C=N/Nc1nnc(Cc2ccccc2)c(=O)[nH]1,inactive
20,COc1cc(CNc2ccccc2)c([N+](=O)[O-])cc1OC,"inconclusive: 17.8 µM [inhibitor, partial curve]"
21,O=C(N/N=C/c1cc([N+](=O)[O-])ccc1O)c1cc(-c2ccccc2)nc2ccccc12,"inconclusive: 44.6 µM [inhibitor, single point]"
22,O=C(O)CCC(=O)N1CCc2cc(S(=O)(=O)NC3CCCc4ccccc43)ccc21 (configuration not stated),"inconclusive: 31.5 µM [activator, single point]"
23,O=C(c1ccco1)N1CCN(C(=O)c2cc3sccc3n2Cc2ccccc2)CC1,inactive
24,CN1C[C@H](CNC(=O)OCc2ccccc2)C[C@@H]2c3cccc4c3c(cn4C)C[C@H]21,"inconclusive: 7.92 µM [inhibitor, single point]"

row,Compound,Potency
1,O=C(Nc1ccc(OC(F)F)c(Cl)c1)c1cccc(OC(F)F)c1,"inconclusive: 19.9 µM [inhibitor, partial curve]"
2,O=C(NCc1ccccn1)c1ccc2nc(-c3ccco3)c(-c3ccco3)nc2c1,active: 2.81 µM
3,S=C1SCN(Cc2ccccn2)CN1Cc1ccco1,"inconclusive: 19.9 µM [inhibitor, single point]"
4,CCOc1c(Cl)cc(CNc2nnnn2C)cc1OC,inactive
5,C[C@H](C(=O)NCc1ccccc1)C(=O)c1ccccc1,inactive
6,Cc1ccc(C)c(S(=O)(=O)C(C#N)c2nc3ccccc3nc2N2CCCC2)c1 (configuration not stated),"inconclusive: 2.81 µM [inhibitor, full curve]"
7,CN(C)c1cc(O)c(C(=S)Nc2ccccc2)c(N(C)C)c1,"inconclusive: 7.92 µM [inhibitor, partial curve]"
8,CCCCn1c(N)c(C(=O)NCCN2CCOCC2)c2nc3ccccc3nc21,"inconclusive: 3.54 µM [inhibitor, full curve, poor fit]"
9,CCOc1ccc(-c2nc(CSCC(=O)N3CCN(c4cccc(OC)c4)CC3)c(C)o2)cc1,inactive
10,CCOc1cc(NC(=S)NCC2CCCO2)c(OCC)cc1NC(=O)c1ccc(F)cc1 (configuration not stated),"inconclusive: 17.7 µM [activator, single point]"
11,COc1ccc(NCc2nnc(SCC(=O)N3CCCc4ccccc43)n2C)cc1,"inconclusive: 15.8 µM [inhibitor, partial curve]"
12,CCCSc1nnc(NC(=O)CSc2sc3c(O)cc(=O)[nH]c3c2C#N)s1,"inconclusive: 11.2 µM [inhibitor, single point]"
13,Cc1ccc(Cn2ccsc2=NC(=O)COC(=O)c2ccc(O)cc2O)cc1,inactive
14,COc1ccc(NC2C=CS(=O)(=O)C2)c(OC)c1 (configuration not stated),"inconclusive: 6.29 µM [inhibitor, full curve]"
15,Cc1ccccc1NC(NC(=O)OCCn1c([N+](=O)[O-])cnc1C)C(Cl)(Cl)Cl (configuration not stated),inactive
16,Nc1ccccc1SC(C[N+](=O)[O-])c1ccccc1 (configuration not stated),"inconclusive: 14.1 µM [inhibitor, partial curve]"
17,CN(C)c1nc(N)nc(/C(C#N)=C/C2CC3C=CC2C3)n1 (configuration not stated),"inconclusive: 17.7 µM [inhibitor, single point]"
18,O=C(c1ccco1)N1CCN(Cc2ccccc2Br)CC1,"inconclusive: 31.6 µM [inhibitor, partial curve]"
19,COc1ccc(-c2ccc(CNCc3ccccn3)o2)cc1Cl,"inconclusive: 17.8 µM [activator, partial curve]"
20,CN(C)/C=C1\Oc2ccc3ccccc3c2C1=O,"inconclusive: 4.46 µM [inhibitor, full curve]"
21,Cn1c(CNS(=O)(=O)c2ccc(Br)cc2)n[nH]c1=S,"inconclusive: 15.8 µM [inhibitor, single point]"
22,CNC(=O)N/N=C(\N)c1ccccn1,"inconclusive: 17.7 µM [inhibitor, single point]"
23,CCOC(=O)c1ccc(N2CSC3=C(C#N)C(c4cccs4)CC(=O)N3C2)cc1 (configuration not stated),active: 19.9 µM
24,CCOc1ccc(C2C3=C(CCCC3=O)N(CC(=O)O)C3=C2C(=O)CCC3)cc1,"inconclusive: 39.8 µM [inhibitor, partial curve]"

row,Compound,Potency
1,CCOC(=O)c1c(N2C(=O)C3C4C=CC(C4)C3C2=O)sc2c1CCC(C)C2 (configuration not stated),inactive
2,C=CCNCCCCOc1ccc(C)cc1[N+](=O)[O-],"inconclusive: 15.8 µM [inhibitor, single point]"
3,Cc1cc(C)c2c(C(C)(C)C)nn(-c3ccccc3)c2n1,inactive
4,COc1ccccc1OCCCCCCN1CCOCC1,"inconclusive: 14.1 µM [inhibitor, partial curve]"
5,COc1ccc(CN2CCN(C(=O)Cc3ccccc3)CC2)cc1Br,"inconclusive: 25.1 µM [inhibitor, partial curve]"
6,COc1ccc(-c2[nH]nc3c2C(c2ccc(OC(=O)N4CCOCC4)cc2)C(C#N)=C(N)O3)cc1 (configuration not stated),"inconclusive: 15.8 µM [inhibitor, single point]"
7,O=C1CN(C(=O)CNCc2ccccc2)c2ccccc2N1,"inconclusive: 19.9 µM [inhibitor, partial curve]"
8,CCN(CCC(=O)Nc1cc(OC)cc(OC)c1)Cc1ccccc1,"inconclusive: 7.06 µM [inhibitor, partial curve]"
9,CC1=CN2C(=N)/C(=C/c3ccc([N+](=O)[O-])o3)C(=O)N=C2S1,"inconclusive: 14.1 µM [inhibitor, partial curve]"
10,CSc1nsc(SCC(=O)Nc2nc3ccc(C)cc3s2)n1,inactive
11,Cc1cc2cc(C=C(C#N)C#N)c(Cl)nc2cc1C,"inconclusive: 7.92 µM [inhibitor, partial curve]"
12,COc1ccc(C2C(C(=O)/C=C/c3ccco3)=C(O)C(=O)N2CCN2CCOCC2)cc1OC (configuration not stated),"inconclusive: 12.6 µM [inhibitor, partial curve]"
13,Cc1ccc2c(c1)CCCN2C(=O)Nc1ccc2c(c1)OCO2,"inconclusive: 17.7 µM [inhibitor, partial curve]"
14,CC(=O)C(C(C)=O)c1c(Cl)c(O)c(O)c2c(C(=O)c3ccccc3)coc12,active: 17.7 µM
15,O=C(OCC(=O)N1CCN(S(=O)(=O)c2ccccc2)CC1)c1ccc([N+](=O)[O-])o1,"inconclusive: 17.7 µM [inhibitor, partial curve]"
16,O=C(NNC(=O)c1cnccn1)c1ccc(Cl)cc1,active: 12.6 µM
17,COc1ccccc1-c1nnc(SCCN2CCOCC2)n1-c1ccc(C)cc1,"inconclusive: 25.1 µM [inhibitor, partial curve]"
18,CCOc1ccc(C(=O)Nc2ccccc2C(=O)O)cc1,"inconclusive: 8.89 µM [inhibitor, partial curve]"
19,O=C(CSc1cccc[n+]1[O-])Nc1ccc2c(c1)OCCO2,inactive
20,CN(C)c1ccc(N/C=C/C(=O)c2ccccc2)cc1,"inconclusive: 19.9 µM [inhibitor, partial curve]"
21,Cc1c(C)n(Cc2ccccc2)c2ncnc(NCCCN(C)C)c12,inactive
22,CC1=CC(=O)NP(=O)(Oc2ccc3ccccc3c2)N1 (configuration not stated),active: 15.8 µM
23,O=C(CCS(=O)(=O)Cc1ccccc1)Nc1nc2c(s1)CCCC2,inactive
24,Cc1cc(C)c(S(=O)(=O)/N=C2/C=C(Sc3ncn[nH]3)C(=O)c3ccccc32)cc1C,active: 0.792 µM
